Test results from PMC5836133.
The list shows a part of the results. At the low end of the ranking the order means little.

The sequences below were run on T1, GST-NbGlk1(82-244) (assay: protein-binding microarray). Settings: NbGlk1 is a Golden2-like transcription factor of Nicotiana benthamiana; high values mean tight binding; most listed sequences are background and not binding sites; double strand, one strand shown.
T1 sequence: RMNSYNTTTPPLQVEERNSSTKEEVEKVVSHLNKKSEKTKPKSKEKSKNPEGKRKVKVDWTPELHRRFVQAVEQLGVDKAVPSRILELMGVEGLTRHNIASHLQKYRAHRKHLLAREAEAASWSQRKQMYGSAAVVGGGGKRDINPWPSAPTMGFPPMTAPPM
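Further: rank-based score ranging −0.5 to +0.5 with E above 0.45 taken as significant binding.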

Sequence | binding signal [E-score]
ATTGAATC | 0.106
AACACCTG | -0.0685
AAATATGT | 0.259
ACATTGAT | 0.0383
ATGTAAAC | 0.00398
AACGGCTC | -0.0966
CAATCGAA | 0.202
ATTGGCCA | -0.144
ACTGCCCA | -0.22
AAAACACA | 0.0683
AACAATCT | 0.244
ACCGTACC | -0.0621
AGCGACCA | -0.21
ATAGGTAG | -0.0826
ATTTGATG | 0.116
AAACGAGG | -0.0779
ATCAATGC | 0.0156
AAGAAGGG | -0.135
AAGATTTA | 0.333
AGATCACA | 0.185
ACGCAGTA | -0.0909
AAGCCTCA | -0.166
ATCACATA | 0.212
ATCTCGGA | 0.36
ATTGAGGG | -0.0357

Sequence | binding signal [E-score]
AAGCTTAA | -0.0444
AGCGTTAG | -0.0918
ACTTTGGA | 0.00547
ACGCCCGC | -0.279
ATCCAGGC | 0.093
AAGGTCCG | -0.208
ACTGGCAT | -0.0937
AAAGGTAT | 0.0527
ATTGGGCC | -0.325
ACAACGCA | 0.000559
AAGATTAG | 0.136
ACTCCCTG | -0.251
AAGCCGAT | 0.0831
AACTTTCA | -0.0373
CAATGACA | -0.0905
AAGGACCA | -0.264
ATTTCTAA | 0.2
AAGACGGG | -0.0475
ACTGCGGC | -0.115
ACAGTCGC | -0.226
CAATTTTC | 0.101
ACACAGGT | -0.179
AGGTTCGC | -0.197
AGTAGAAG | -0.043
AGAGTTCG | -0.199

Sequence | binding signal [E-score]
ACTTGCAG | -0.0836
ACAACTAA | -0.0213
ACCCCGTA | -0.0728
AAGAAAAG | 0.00831
AACGGTAT | -0.0133
AATTCGAT | 0.182
AGGCAAGG | -0.216
ATAATCCG | 0.337
ATGGGCAG | -0.26
AGCCAGGC | -0.24
CACTTATA | 0.0728
AGAAAAAT | 0.252
AACCAGAG | -0.107
CACTGATA | 0.208
AAGTTCGT | -0.0191
ACCGACTC | -0.203
CAGACTCA | -0.149
ACATTCCA | -0.0714
CAAAGGTG | -0.155
AGTGCAAC | -0.102
ACAATAAT | 0.15
ACGACAAT | 0.149
AGGCCTCA | -0.235
AGCCACAC | -0.156
AGTGCGCC | -0.138

Sequence | binding signal [E-score]
AGTCTAGC | -0.163
CACCCACC | -0.0817
ACAGGCAC | -0.156
CAAACTAA | 0.139
ATGAGCCA | -0.129
ACTCGAGC | -0.18
ATAGACCC | -0.248
ATATTGAG | 0.214
AGGTGTTG | 0.0307
CACGTTTA | -0.0185
ATCGGTTA | 0.137
CAGCCAGA | -0.059
AGTACACC | -0.0619
ACCTATCT | 0.0132
ACAACTCA | -0.0703
AGTCCTCC | -0.342
ATAACACG | 0.136
AGGGACCG | -0.245
ATTAATGC | -0.000351
ATTCGCAG | 0.292
ATTCGTCC | -0.0277
ACTGGTGA | -0.0798
ACATGCCA | -0.158
AAACTCTG | -0.0422
ACATTGGC | -0.145

Sequence | binding signal [E-score]
AAGACATC | -0.031
AGGCCCAG | -0.282
AGGCAATG | -0.0934
CACCCAGC | -0.212
ACGCCTTG | -0.173
CACTACCC | -0.229
ACTGTCCG | -0.0599
ACAGTGAG | -0.126
CAATCACC | 0.132
CAGAAGCC | -0.306
ACAAGGGC | -0.212
AACATTCG | -0.0753
ATCCTCTA | 0.342
AGGGGGCA | -0.128
AAGCACGC | 0.0282
ATCAGAAT | 0.275
ACTATACC | -0.0514
AAAACACC | -0.0449
AGCATACG | -0.0933
ATACACAA | 0.175
ACTTTTAC | 0.0084
ACTGATAA | 0.103
ATTAATAA | 0.0603
AACGCTCA | -0.0431
ATGACGTG | 0.0205

Sequence | binding signal [E-score]
ATATGACC | 0.00878
AGGGTTGG | -0.19
AATCCATG | 0.381
ACTTATGG | -0.101
CACAGACG | -0.122
ACGGCTCG | -0.172
AGGAACCG | -0.245
AATAGACG | 0.0434
CAGACTAC | -0.173
AGGGCAAA | -0.0141
AGTCCCTA | -0.0768
AAGAAGAG | -0.0793
CACGATCG | 0.23
ATTTGCCC | 0.164
ATGGAAAC | -0.0756
ACCTCACC | -0.132
AGCCTAGC | -0.277
AGGCAGGA | -0.0368
AAGCCGGC | -0.314
AAGACTTC | -0.0102
ATTTGTAC | 0.228
ACACCTGA | 0.0673
AATGACAG | -0.145
AGACTCGC | -0.16
AAACAATC | 0.131

Sequence | binding signal [E-score]
AACCTGGT | -0.211
AGTACCCA | -0.0871
AATTGGTC | -0.0142
AACACACC | -0.0581
ATCTCAAC | 0.329
AAATACGG | 0.207
CACACCAG | -0.0346
AACACAAC | -0.105
AAGGATGA | -0.0566
ATTGGACA | -0.1
AATAGGTG | -0.043
ATCCCCTG | 0.0935
ATACTGTA | 0.274
CAGAATGC | -0.097
AGGCACAC | -0.167
AGAGCATG | -0.229
ATATTGAT | 0.248
AGATCTTA | 0.347
ACTTTCGC | -0.0741
ATATGATG | 0.184
AAGACTGT | -0.0211
ATTGGATC | 0.158
AAAACACG | 0.0341
ACCACAGG | 0.0657
ATCGCACA | 0.256

Sequence | binding signal [E-score]
ACCCTTCC | -0.172
AGTGCTCA | -0.0993
AGCGCCGA | -0.0809
ATCGACGG | -0.0567
CAGAGCCA | -0.222
CACATCTA | 0.0487
AGCAGTGC | -0.31
AGCGTGTC | -0.261
AGTCGTAT | 0.118
AACTCTTC | -0.205
CACCCTCC | -0.112
AGTGCGAG | -0.106
AAAGGCAG | -0.0357
AGTCTGAA | -0.0849
AGGAAACC | -0.111
AGTAGGAT | 0.128
AAAGCCTC | -0.156
ATAGGCGC | -0.0234
ACAAGACC | -0.0852
AAAAGGAA | 0.134
AATTAGCC | -0.107
AAGTAATA | 0.122
ATGTCCCC | -0.228
AAGCGGAG | -0.131
AAAGCGTG | -0.0903

Sequence | binding signal [E-score]
ACATACTG | 0.0286
ACGCGCTG | -0.0674
ACTAATTG | 0.0189
ATATTACG | 0.331
CACAGTCG | -0.22
ACAGTCCC | -0.175
AGTAAGAG | 0.00657
ACCTCTCC | -0.122
CAAGTTAA | -0.0639
AGTATTAG | 0.0655
AGGGAGAT | 0.281
CAGAATAG | -0.0163
CACGGGAC | -0.244
AAACTGCA | -0.114
AGTACTGC | -0.0403
AAGGATAC | 0.0958
ATACACGC | -0.0739
ATGCTATG | -0.0989
AGCAAAGG | -0.149
AAGGCACC | -0.29
ATAGATTC | 0.437
ATTTGGGA | 0.22
AAGAGGAG | -0.207
ATTATGTG | 0.101
ACAGCTAT | 0.0211

Sequence | binding signal [E-score]
ATCATGAA | 0.215
ATGGGTCG | -0.184
ACCATATA | 0.118
ATCCAGGA | 0.328
AGGTAGCA | -0.132
AAAGCTTC | -0.176
AGATGCCC | -0.111
AGGACTCC | -0.31
ACCCGAAA | 0.00571
AAAGCCTA | -0.0333
AGTTAGGA | 0.0497
ACACCGAT | 0.145
ATCACTCA | 0.176
AGAGATGA | -0.0128
AAGCTATG | -0.161
ACCAGCTC | -0.249
CAACCACA | -0.101
ACCCCAAC | -0.108
AACCCTTC | -0.233
AAGGAGGG | -0.244
AGGAGTGC | -0.206
ATTCCAGA | 0.111
CACAACAC | 0.107
AGTTGGAT | 0.269
ACAATGCG | -0.0864

Sequence | binding signal [E-score]
AGATGTGG | -0.0812
ATATGGAC | 0.0925
ACCGCACT | -0.0389
ACTTCCGG | -0.0985
AACAAGCA | -0.00652
CAAAGATG | -0.0188
ACCCGCTA | -0.144
ATTCAACC | 0.0863
AGATAATA | 0.116
ACCGGTAT | 0.0515
AGTAACTC | -0.156
CAAGTAGA | 0.106
ACTAAGAC | -0.0841
AAATAAGC | 0.0906
AACAAGGC | -0.115
AAATTATG | 0.0815
ACGGAAGC | -0.208
AAAGCGTT | -0.0734
ATCAACTG | 0.0489
AATAGAGG | 0.0151
AGCCTCGC | -0.192
ACAATGGC | -0.0799
ACTACTGA | 0.113
AAGCATCA | 0.00693
ACTGCCGG | -0.147

Sequence | binding signal [E-score]
ACCCCGGT | -0.266
ACTGTGCA | -0.148
CAGAAATC | 0.405
CAATGCCC | -0.224
AGCAACAA | 0.00402
AAGCTTAG | 0.000607
AAACCGTT | -0.0172
ATCGTAAC | 0.244
AACGCTGC | -0.0879
ATGCAGAC | -0.144
CAACCAGA | 0.0468
ATCACGAC | 0.17
ACAGATAT | 0.415
ATCCTTTG | 0.201
CAAAATTA | 0.0949
ATGCGTTC | -0.115
ATCCGGCG | 0.083
ACGATCCT | 0.272
AACTCTTG | -0.0858
ACGGCCGT | -0.0422
AGCTCATG | -0.193
ACGGTCAT | -0.0803
AAGAATGA | 0.0221
AGCCTGCA | -0.233
ACATTACT | 0.0636

Sequence | binding signal [E-score]
ATAGTTCG | -0.0776
AAATGCAC | -0.0725
CACATCTC | -0.0459
AACCCGAG | -0.197
ATGAGACA | 0.0389
ATGTACAT | 0.123
AAGCGCCT | -0.17
ATTAAAAC | -0.0516
AATTCGGA | 0.17
AAAGGACA | 0.0338
ATCCGGAC | 0.272
AAGGGCTG | -0.302
AACCGCAG | -0.0931
ACACGGGG | 0.00936
ACAGCATC | 0.0298
AGGCTATC | -0.0876
AGCCTAGG | -0.317
CACGTTGA | -0.151
AGGGGGGA | -0.137
AGCAGTTC | -0.0663
AAACGTAG | -0.0281
ACGGCTGC | -0.271
ATATAGGA | 0.175
AAGACGCC | -0.268
ACAAACTG | -0.128

Sequence | binding signal [E-score]
ATACTGGA | 0.0298
ACCGTGTG | -0.21
ATTACTCG | 0.219
ATCCTCCG | 0.257
AGTGTACC | -0.149
ACTTCGGG | -0.154
AACACGCA | 0.0515
ACCAATCG | 0.0759
ATATACTC | 0.244
AAGCCTGA | -0.0987
ACCTTATC | -0.1
ATCCTGCG | 0.207
AGTTAGGC | -0.0872
AATAGCAT | 0.0615
ACACTTAC | -0.00522
ATTGTAAA | 0.12
ACCAAGGT | -0.141
ATTTTTGA | 0.24
AGCAATGG | -0.199
